From PubChem BioAssay AID1468 (National Center for Advancing Translational Sciences (NCATS), 2008)
Where “and” joins values, the source holds several entries; their conditions need not be identical. Equal values may be shown once. The whole screen tested about 280,000 compounds, of which about 1,100 (0.39%) were called active. The inconclusive results got no clear call from the source; some entries with a clear call stand among them for comparison. Calls come from the whole dose curve; as a rule, active = well fitted inhibition curve with a large enough effect; inconclusive = small, poorly fitted or top-dose-only effect, or effect the other way; inactive = flat fitted curve, though single readings scatter. Potencies of inconclusive entries are doubtful fits and often do not repeat.

target: Microtubule-associated protein tau (Homo sapiens) (UniProt P10636); assay: qHTS for Inhibitors of Tau Fibril Formation, Fluorescence Polarization; details: K18 P301L tau heparin fibrillization, Alexa594 FP, 6 h; series mostly up to 57.7 µM; activity, negative = inhibition: at the top concentration; note: nearly all actives have a fitted effect of over 55% in size
Sequence of UniProt P10636 (P10636 whole entry, looked up, the tested form may be a part): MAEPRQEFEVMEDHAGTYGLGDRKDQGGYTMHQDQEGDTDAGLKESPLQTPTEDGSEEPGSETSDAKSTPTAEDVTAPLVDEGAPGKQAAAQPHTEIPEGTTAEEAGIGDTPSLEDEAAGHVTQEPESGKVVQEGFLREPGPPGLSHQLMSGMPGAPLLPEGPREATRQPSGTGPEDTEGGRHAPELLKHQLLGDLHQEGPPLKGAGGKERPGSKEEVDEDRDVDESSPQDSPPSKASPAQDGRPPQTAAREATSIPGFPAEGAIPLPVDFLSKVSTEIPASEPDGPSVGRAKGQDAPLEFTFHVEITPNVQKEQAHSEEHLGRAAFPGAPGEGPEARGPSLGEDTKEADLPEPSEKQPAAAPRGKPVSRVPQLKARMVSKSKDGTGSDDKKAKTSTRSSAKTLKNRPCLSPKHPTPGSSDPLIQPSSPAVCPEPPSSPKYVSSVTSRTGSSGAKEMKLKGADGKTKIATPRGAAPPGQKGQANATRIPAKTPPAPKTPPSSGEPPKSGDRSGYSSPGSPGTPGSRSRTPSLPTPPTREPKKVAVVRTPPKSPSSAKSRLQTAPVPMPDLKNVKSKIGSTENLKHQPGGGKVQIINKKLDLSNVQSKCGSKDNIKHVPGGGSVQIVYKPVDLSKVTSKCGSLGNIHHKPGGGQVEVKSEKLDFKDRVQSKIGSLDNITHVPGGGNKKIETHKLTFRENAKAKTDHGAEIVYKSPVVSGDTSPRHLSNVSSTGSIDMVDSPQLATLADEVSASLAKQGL
Method in brief: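 Human K18 P301L fragment (15 uM unlabeled plus 0.24 uM Alexa 594-labeled) in 100 mM sodium acetate pH 7 with compound, aggregation induced by 20 uM heparin for 6 hr at 37 C. ThT (30 uM) added for 1 hr, then Alexa 594 FP read.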
% is set by controls: 0 for no effect and ±100 for the full control effect; potency is the fitted concentration of half-maximal effect; tags give direction and shape of the fitted curve.

Compound | Potency | activity, negative = inhibition
COc1ccc(NC(=O)Cn2c(=O)n(Cc3ccco3)c(=O)c3cc(OC)c(OC)cc32)cc1 | inconclusive: 31.6 µM [inhibitor, single point] | 
COCCN1C(=O)c2cc(C(=O)Nc3cccc(F)c3)ccc2C1Nc1cccc(F)c1 (stereo not given) | inconclusive: 1.58 µM [inhibitor, partial curve, poor fit] | 
O=C(O)c1cccnc1C(=O)O | inconclusive: 1.12 µM [inhibitor, single point] and inconclusive: 1.41 µM [inhibitor, partial curve] and inconclusive: 15.8 µM [inhibitor, partial curve, poor fit] | 
O=C(Nc1nccs1)c1ccc(NC(=O)C2CC=CCC2C(=O)O)cc1 (stereo not given) |  | inactive: 2.03%
CC(=O)c1cc(NC(=O)c2ccc(C)cc2)c(=O)oc1C | inconclusive: 39.8 µM [inhibitor, single point] | 
CC(=O)n1c2ccccc2c2nc(NC(C)C)sc21 | inconclusive: 25.1 µM [inhibitor, partial curve, poor fit] | 
COc1ccccc1C(=O)CSc1nnc(-c2ccco2)o1 | inconclusive: 4.47 µM [inhibitor, full curve] | 
CCN1CCN(CCOc2ccc(Cl)cc2)CC1 |  | inactive: 10.3%
CCCCN(CCCNC(=O)c1ccc(Sc2ccc(Cl)cc2)c(NC(C)=O)c1)c1ccccc1 | inconclusive: 10 µM [activator, partial curve] | 
Cc1ccc(S(=O)(=O)/N=S(/c2ccccc2)C(C)C)cc1 (stereo not given) | inconclusive: 44.7 µM [inhibitor, single point] | 
COc1ccc(/C=N/Nc2nc3ccccc3o2)cc1O | inconclusive: 0.794 µM [activator, partial curve, poor fit] | 
Cn1c(=O)c2c(nc(NCc3ccco3)n2C/C=C/c2ccccc2)n(C)c1=O | inconclusive: 39.8 µM [activator, single point] | 
COC(=O)C1=C(C)NC(=O)/C1=C\c1cc(C)n(-c2ccccc2C)c1C |  | inactive: 4.93%
CCN1C(=O)c2ccccc2Sc2ccc(NC(=O)Nc3ccccc3OC)cc21 | inconclusive: 20 µM [inhibitor, partial curve] | 
COc1cc(SSc2cc(OC)cc([N+](=O)[O-])c2N)c(N)c([N+](=O)[O-])c1 | inconclusive: 4.47 µM [inhibitor, partial curve, poor fit] | 
CCOc1ccc(-c2c(C(=O)N/N=C/c3ccc(C)cc3)nnn2-c2nonc2N)cc1 | inconclusive: 20 µM [inhibitor, single point] | 
CCOC(=O)c1[nH]c(C)c(C(=O)NC2CCCC2)c1C |  | inactive: 14.5%
CC(=O)N1CCc2cc(CNC(=O)Nc3cc(Cl)ccc3C)ccc21 | inconclusive: 44.7 µM [inhibitor, single point] | 
COc1ccccc1NC(=O)C1=C(C)Nc2nc(SCc3ccc(Cl)cc3)nn2C1c1ccccc1Cl (stereo not given) | inconclusive: 11.2 µM [inhibitor, partial curve] | 
N#Cc1ccc2c(c1)NC(=O)C1CCCN21 (stereo not given) | inconclusive: 35.5 µM [inhibitor, single point] | 

Compound | Potency | activity, negative = inhibition
CC(=O)c1cccc(NC(=O)Nc2ccc(C(=O)N3CCCC3)cc2)c1 |  | inactive: -14.8%
O=C(c1ccco1)N(Cc1cccc([N+](=O)[O-])c1)c1ccc(Br)cc1 |  | inactive: 7.42%
O=C(O)c1ccc(-n2nc(C(F)(F)F)c3c2-c2ccoc2CC3)cc1 | inconclusive: 39.8 µM [inhibitor, single point] | 
CS(=O)(=O)c1oc(-c2ccc(F)cc2)nc1S(=O)(=O)c1ccc(Cl)cc1 | inconclusive: 31.6 µM [inhibitor, single point] | 
O=C(CSc1nc2c(sc3ccccc32)c(=O)n1CCCC(=O)NC1CCCC1)Nc1ccc(F)cc1 | inconclusive: 20 µM [inhibitor, partial curve, poor fit] | 
COc1cccc(-n2c(SCC(=O)Nc3cccc(Cl)c3)nc3c(oc4ccccc43)c2=O)c1 | inconclusive: 17.8 µM [inhibitor, partial curve] | 
Oc1ccc(C2Oc3cc(O)cc(O)c3CC2O)cc1 (stereo not given) |  | inactive: 0.982%
CCc1cc(-c2n[nH]c(=S)n2CC)cs1 |  | inactive: 2.33%
O=C(CSc1nccc(=O)[nH]1)c1ccccc1Br | inconclusive: 25.1 µM [inhibitor, partial curve] | 
COc1ccc(N2C(S)=C(C#N)C(=O)NC2c2ccc(OC)c(OC)c2)cc1 (stereo not given) | inconclusive: 31.6 µM [inhibitor, partial curve] | 
CCc1ccc(NCc2cc3ccc(OC)cc3n(CC(=O)Nc3ccc(C(C)C)cc3)c2=O)cc1 | inconclusive: 7.08 µM [activator, full curve] | 
O=C(CNS(=O)(=O)c1ccccc1)OCC(=O)c1ccc([N+](=O)[O-])cc1 | inconclusive: 20 µM [inhibitor, partial curve] | 
O=C(/C=C/c1ccccc1)NC(NC(=S)Nc1ccc(Cl)cc1Cl)C(Cl)(Cl)Cl (stereo not given) | inconclusive: 39.8 µM [inhibitor, single point] | 
COc1ccc(C(C)(C)C)cc1NC(=O)Nc1ccc2c(c1)OCO2 | inconclusive: 3.55 µM [activator, partial curve, poor fit] | 
COc1ccc(NS(=O)(=O)c2cccc(NC(=O)c3ccc(S(=O)(=O)N4CCCCCC4)cc3)c2)cc1 | inconclusive: 7.08 µM [inhibitor, partial curve] | 
O=S1(=O)C=C(Sc2nc3ccccc3s2)c2ccccc21 | inconclusive: 14.1 µM [inhibitor, partial curve] | 
CCCn1c(C)cc(/C=C(\C#N)C(=O)OCC(=O)Nc2ccc(OC)c(Cl)c2)c1C | inconclusive: 12.6 µM [inhibitor, partial curve] | 
O=C(/C=C/c1ccc(Cl)cc1)NC1CC2CCC1C2 (stereo not given) |  | inactive: -5.83%
COC(=O)c1cccc(Nc2c(-c3ccc(OC)cc3)nc3nc[nH]n23)c1 |  | inactive: -8.95%
Cc1ccc2nc(-c3ccc(NC(=O)CN(C)S(=O)(=O)c4ccccc4)cc3)sc2c1 | inconclusive: 20 µM [inhibitor, partial curve] | 
